Data from patent US20240002405A1, “ANTIMICROBIAL COMPOUNDS, SYNTHESIS METHODS, AND USES THEREOF” (Ankh Life Sciences Limited, priority 2022, published 2024).

Tested on: engineered Salmonella typhimurium strain (umuC, β-galactosidase)
Conditions: GK524 vs GK517.3 vs GK506.2Im, with and without S9

SMILES | genotoxicity, comparison in words
COc1ccc2c3c([nH]c2c1)C(CC(CC1=NCCc2c1[nH]c1cc(OC)ccc21)c1cncs1)=NCC3 [GK524] | lowest toxicity
COc1ccc2c3c([nH]c2c1)C(CC(CC1=NCCc2c1[nH]c1cc(OC)ccc21)c1c[nH]cn1)=NCC3 [1,1′-(2-(1H-imidazol-4-yl)propane-1,3-diyl)bis(7-methoxy-4,9-dihydro-3Hpyrido[3,4-b]indole)] | High genotoxic activity
